86 sequences from the supplement of paper PMC3334620 can be followed below.

Over roughly 33,000 sequences, “E-score (-0.5 to 0.5)” has its median near -0.012; the highest 2% begin near 0.29. The list shows a part of the results.

The target of the assay is T1, Ybr033w (UniProt P38073).
T1 sequence: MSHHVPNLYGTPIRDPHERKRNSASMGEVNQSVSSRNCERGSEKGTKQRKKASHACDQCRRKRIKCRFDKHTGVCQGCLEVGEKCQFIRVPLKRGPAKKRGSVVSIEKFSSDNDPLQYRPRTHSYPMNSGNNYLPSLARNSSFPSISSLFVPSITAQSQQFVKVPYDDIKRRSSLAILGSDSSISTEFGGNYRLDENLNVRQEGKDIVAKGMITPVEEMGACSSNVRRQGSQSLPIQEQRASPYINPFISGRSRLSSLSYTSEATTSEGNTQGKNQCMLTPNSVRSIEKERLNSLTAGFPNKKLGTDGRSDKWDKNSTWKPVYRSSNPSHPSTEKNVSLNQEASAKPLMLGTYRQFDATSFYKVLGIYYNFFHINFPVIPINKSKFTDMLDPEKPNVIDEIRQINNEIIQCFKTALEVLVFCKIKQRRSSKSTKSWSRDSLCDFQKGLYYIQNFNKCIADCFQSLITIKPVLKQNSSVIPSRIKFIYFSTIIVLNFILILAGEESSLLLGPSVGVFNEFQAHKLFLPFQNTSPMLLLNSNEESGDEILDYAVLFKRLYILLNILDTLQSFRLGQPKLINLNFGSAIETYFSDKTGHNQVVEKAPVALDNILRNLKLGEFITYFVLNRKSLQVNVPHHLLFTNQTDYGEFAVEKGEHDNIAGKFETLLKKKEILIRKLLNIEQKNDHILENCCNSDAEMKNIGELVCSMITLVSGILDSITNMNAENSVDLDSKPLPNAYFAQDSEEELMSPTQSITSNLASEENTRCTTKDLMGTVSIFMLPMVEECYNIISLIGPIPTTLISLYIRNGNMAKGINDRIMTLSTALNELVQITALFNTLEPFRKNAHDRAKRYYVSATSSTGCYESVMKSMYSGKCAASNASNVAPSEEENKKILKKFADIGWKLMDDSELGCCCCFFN
In words: PBM E-score (8-mer binding enrichment) (E-score (-0.5 to 0.5)); higher = stronger / more preferred TF binding; most listed sequences are background and not binding sites. Conditions: protein concentration: 200 nM; construct: GST-full length. The gist of the method:
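Each ungapped eight-base word and its reverse complement, pooled, received an E-score from the Universal PBM Analysis Suite. Underlying scans, normalised with masliner, recorded fluorescent anti-GST bound to GST-tagged yeast transcription factors. These were applied at about 100-200 nM to universal all-10-mer Agilent arrays double-stranded by primer extension.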
As for TGAGGTAA, the “PBM E-score” value worked out at 0.0106.

With ATGGGGTC, the “PBM E-score” value is -0.186.

In the case of ACGTCACT, the “PBM E-score” value is -0.0698.

With AGCATAGA, the “PBM E-score” value amounted to 0.0717.

In the case of ATGCCCGA, the “PBM E-score” value is -0.106.

In the case of GATTTGGC, the “PBM E-score” value was -0.212.

As to CTCACTTC, the “PBM E-score” value was -0.204.

On to ATCGCAAT, for which the “PBM E-score” value was 0.0818.

Turning to CCTCTCGC, the “PBM E-score” value was -0.297.

For TAATATTA, the “PBM E-score” value was 0.342.

For the sequence CGGCGCAA, the “PBM E-score” value is -0.148.

CCACATAA: the “PBM E-score” value worked out at 0.0924.

For the sequence AACAGTGT, the “PBM E-score” value turned out to be 0.0147.

For the sequence AGCCACAT, the “PBM E-score” value came to 0.15.

On to CGCGACAA, for which the “PBM E-score” value is 0.12.

Regarding CCCATTTA, the “PBM E-score” value was 0.104.

For CGACGATC, the “PBM E-score” value is -0.0378.

Consider CACAAGCC, for which the “PBM E-score” value is -0.0902.

In the case of GCTATGCA, the “PBM E-score” value is -0.0627.

With AGTGGAGG, the “PBM E-score” value is -0.114.

As for ACATGCGG, the “PBM E-score” value was -0.0894.

ATCGGAGG: the “PBM E-score” value is 0.0321.

Turning to ATTCTCAC, the “PBM E-score” value was 0.137.

Take ACGCCGTG: the “PBM E-score” value is -0.0819.

Turning to ACTGTAAT, the “PBM E-score” value worked out at 0.0614.

On to GTACAGGA, for which the “PBM E-score” value is 0.127.

For the sequence ATCTACTC, the “PBM E-score” value stood at 0.127.

Regarding CTAGAGCA, the “PBM E-score” value was -0.171.

AGAGACGC: the “PBM E-score” value is -0.0537.

For CGGTTGAA, the “PBM E-score” value worked out at 0.0164.

For AGCTACTA, the “PBM E-score” value was determined as 0.0725.

As for CACTTGAC, the “PBM E-score” value was -0.0994.

In the case of GACTTATC, the “PBM E-score” value was -0.152.

Take AAGAGCCG: the “PBM E-score” value was -0.0657.

Regarding GGGCACGA, the “PBM E-score” value was -0.142.

CGGTCCAC: the “PBM E-score” value was -0.275.

As for GCCCCGGC, the “PBM E-score” value is -0.352.

For the sequence CATGTTAA, the “PBM E-score” value worked out at 0.218.

GAGGAATA: the “PBM E-score” value amounted to 0.222.

Turning to ATTAGGCC, the “PBM E-score” value came out at 0.0094.

With ATCCCGAG, the “PBM E-score” value amounted to 0.0239.

With GGGCGACA, the “PBM E-score” value was -0.322.

On to AATCATCG, for which the “PBM E-score” value was found to be 0.0255.

For GCCGCGAC, the “PBM E-score” value was -0.162.

Turning to TAGAATGA, the “PBM E-score” value was found to be 0.246.

Turning to GTACTACA, the “PBM E-score” value is 0.114.

As for ACTTTTTG, the “PBM E-score” value amounted to 0.196.

For the sequence ACCAGTCC, the “PBM E-score” value was -0.222.

In the case of ACCCAGCC, the “PBM E-score” value was -0.28.

With CATGATCC, the “PBM E-score” value is 0.0454.

In the case of GCGCCGAA, the “PBM E-score” value was -0.0138.

As for TAGTTAAA, the “PBM E-score” value turned out to be 0.296.

Take GGCGGTCA: the “PBM E-score” value was -0.284.

Turning to AAAGCCGA, the “PBM E-score” value is -0.189.

Turning to CCTACCTA, the “PBM E-score” value was -0.0809.

In the case of CCGTGGGA, the “PBM E-score” value is -0.155.

As for CAGAGCCC, the “PBM E-score” value is -0.18.

GTCGAGAC: the “PBM E-score” value is -0.01.

Consider TTGCCCAA, for which the “PBM E-score” value is 0.0565.

As for CGTCGTAG, the “PBM E-score” value is -0.187.

Turning to CGAGCGAA, the “PBM E-score” value was found to be 0.0224.

CTGAACTA: the “PBM E-score” value was determined as 0.037.

As for AGTCCGTG, the “PBM E-score” value is -0.282.

CCTTGACC: the “PBM E-score” value is -0.177.

In the case of GGCGAGAA, the “PBM E-score” value was determined as 0.17.

Take GAGGGTCC: the “PBM E-score” value was -0.364.

Take AACTCATG: the “PBM E-score” value is 0.182.

On to CGTATGTA, for which the “PBM E-score” value was 0.108.

In the case of TACTCACA, the “PBM E-score” value came out at 0.158.

Consider ACGGCACG, for which the “PBM E-score” value is -0.0907.

On to AATTGCAG, for which the “PBM E-score” value was -0.0339.

Take CACATAAA: the “PBM E-score” value was 0.239.

On to ATTGATAC, for which the “PBM E-score” value worked out at 0.251.

For CAACACTC, the “PBM E-score” value worked out at 0.0698.

For GGTGTGAC, the “PBM E-score” value is -0.193.

For GCCGTGTA, the “PBM E-score” value was -0.122.

Regarding TAGTCAGA, the “PBM E-score” value is -0.0781.

For CGCCCATA, the “PBM E-score” value is -0.116.

Regarding GAGTCAAA, the “PBM E-score” value was -0.0673.

On to AGCTAAGA, for which the “PBM E-score” value came to 0.00641.

In the case of ACTGTTGC, the “PBM E-score” value is 0.00948.

Regarding GCCGACCC, the “PBM E-score” value is -0.296.

Turning to ACGTCATC, the “PBM E-score” value was -0.148.

Regarding CATTCTCG, the “PBM E-score” value stood at 0.0112.

CCATGGGC: the “PBM E-score” value was -0.165.

Consider CCCCGCAC, for which the “PBM E-score” value was -0.179.
